Measured values reported in the supplement of paper PMC10126150.
Values marked as one replicate rest on one cluster of the flow cell; about a third of the high ones do not repeat.

Tested on: ATP
Assay: switch fluorescence ratio, 500 uM ATP over buffer (Cy3 cluster intensity, sum of 5 cycles each) (fold (ratio)); higher = stronger signal-on switching upon ATP binding; sequences stand for … in TCGTCGGCAGCGTCAGATGTGTATAAGAGACAGTTTTTTTTTTTTTTTTTTTTTTTTT…TC
Conditions: aptamer strand: ATP DNA aptamer (quencher-CACCTGGGGGAGTATTGCGGAGGAAGG + anchor), 100 nM annealed; ATP concentration: 500 uM; one replicate
In short: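 Cy3-labelled switching-strand clusters on a modified Illumina MiSeq flow-cell were annealed to 100 nM quencher-labelled ATP aptamer and imaged first in selection buffer, then after 15 min with 500 uM ATP at 22 °C. NaOH stripping and re-annealing separated each of five buffer/ATP cycles, and clusters outside 100-1000 RFU were excluded. The fluorescence ratio sums target-cycle Cy3 intensity over buffer-cycle Cy3 intensity per cluster and averages it per switch-domain sequence.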
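Note: ATP exposure 15 min at 22 °C before imaging.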

| Sequence | switch fluorescence ratio |
| --- | --- |
| GAACACTGCG | 1.03 |
| GAACACTTAG | 1.07 |
| GAACAGTCTG | 1 |
| GAACATAGCT | 1 |
| GAACATTTA | 0.964 |
| GAACCAGGTT | 1.05 |
| GAACCATGCA | 1.01 |
| GAACCCTTGG | 1.03 |
| GAACGCGTGC | 1.63 |
| GAACGCTCAC | 3.9 |
| GAACTCCTCC | 1.77 |
| GAACTGGCTG | 1.03 |
| GAACTGTATT | 1.07 |
| GAACTGTGCA | 1.02 |
| GAACTTATTA | 1.01 |
| GAACTTCAAA | 0.98 |
| GAACTTCGCG | 1.2 |
| GAACTTCTTT | 0.986 |
| GAACTTTGTG | 1.01 |
| GAAGAACGGA | 1.02 |
| GAAGACGCTG | 0.958 |
| GAAGATAAGT | 1 |

| Sequence | switch fluorescence ratio |
| --- | --- |
| GAAGATTTGT | 1.02 |
| GAAGCATTGT | 1.11 |
| GAAGCGGACG | 0.996 |
| GAAGCGTCCA | 1.08 |
| GAAGCTGGGG | 1.04 |
| GAAGCTGTAA | 1.2 |
| GAAGGACCGA | 1.01 |
| GAAGGAGACC | 1.01 |
| GAAGGAGCCG | 0.951 |
| GAAGGCGAAC | 1.19 |
| GAAGGGGCTA | 1.02 |
| GAAGGGTAGG | 1.04 |
| GAAGGTGAAC | 1.04 |
| GAAGGTGGAC | 1.03 |
| GAAGGTTTTA | 0.957 |
| GAAGTAGTCA | 0.941 |
| GAAGTCATCG | 1.06 |
| GAAGTCCATT | 0.983 |
| GAAGTCGAGT | 1.18 |
| GAAGTCTGGT | 0.986 |
| GAAGTGGCGG | 0.993 |
| GAAGTTACGC | 1.02 |

| Sequence | switch fluorescence ratio |
| --- | --- |
| GAAGTTGCAG | 1.01 |
| GAAGTTGCG | 0.986 |
| GAAGTTTAGT | 0.996 |
| GAAGTTTCAT | 1.01 |
| GAATAAATCT | 0.984 |
| GAATACATTT | 1.01 |
| GAATACGTTG | 1.07 |
| GAATAGGTAG | 1.01 |
| GAATAGGTCC | 0.966 |
| GAATATAAC | 1.01 |
| GAATATGGTG | 1.01 |
| GAATATTTCA | 1.01 |
| GAATATTTGG | 1.01 |
| GAATCAGCTG | 0.981 |
| GAATCATAAG | 1 |
| GAATCATTGG | 1.01 |
| GAATCCGGTC | 1.06 |
| GAATCGGCCT | 1.04 |
| GAATGAAGAT | 1.01 |
| GAATGCAAAC | 2.61 |
| GAATGTCACG | 0.984 |
| GAATGTTCGA | 0.97 |

| Sequence | switch fluorescence ratio |
| --- | --- |
| GAATGTTTCC | 0.995 |
| GAATTGACTG | 0.917 |
| GAATTGGCT | 0.898 |
| GAATTGGGTT | 1.02 |
| GAATTTCTTG | 1.03 |
| GAATTTGGAG | 1.01 |
| GAATTTGTCA | 0.958 |
| GAATTTTGCA | 0.99 |
| GACAAAGTCC | 1.06 |
| GACAACGCAC | 3.6 |
| GACAACTAAA | 0.984 |
| GACAAGAATG | 0.994 |
| GACAATATGG | 0.956 |
| GACACAGTGG | 1.05 |
| GACACCATGC | 1.23 |
| GACACTAAAT | 1.03 |
| GACAGAGAAC | 1.03 |
| GACAGCCCGA | 0.955 |
| GACAGCCCTT | 1.03 |
